# From PubChem BioAssay AID2147 (National Center for Advancing Translational Sciences (NCATS), 2009)
# Hit rate of the full screen: of about 230,000 compounds, about 3,600 (1.6%) were called active. Inconclusive means that the source gave no clear call. Such entries were picked first, then a sample of the others. The call rests on the fitted dose curve; in most records, active means well fitted inhibition curve with a large enough effect (not every such curve was filed as active); inconclusive means small, poorly fitted or top-dose-only effect, or another doubt; inactive means no such curve, though single readings can be large or run the other way. Potencies of inconclusive entries are doubtful fits and often do not repeat.
# Biological target: Lysine-specific demethylase 4E (Homo sapiens) (UniProt B2RXH2)
# Assay: qHTS Assay for Inhibitors of Human Jumonji Domain Containing 2E (JMJD2E)
# Conditions: JMJD2E catalytic domain, FDH-coupled NADH fluorescence (FDH is formaldehyde dehydrogenase); series mostly up to 57.1 µM; activity change, negative = inhibition: at the top concentration
# Further: nearly all actives have a fitted effect of over 50% in size.
# Potency means the concentration at half of the fitted maximal effect; tags describe the fitted curve by direction and shape.
# 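Wherever activity change, negative = inhibition is given: 0% = wells with enzyme and -100% = buffer wells without enzyme.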
# UniProt B2RXH2, sequence (B2RXH2 whole entry, looked up, the tested form may be a part): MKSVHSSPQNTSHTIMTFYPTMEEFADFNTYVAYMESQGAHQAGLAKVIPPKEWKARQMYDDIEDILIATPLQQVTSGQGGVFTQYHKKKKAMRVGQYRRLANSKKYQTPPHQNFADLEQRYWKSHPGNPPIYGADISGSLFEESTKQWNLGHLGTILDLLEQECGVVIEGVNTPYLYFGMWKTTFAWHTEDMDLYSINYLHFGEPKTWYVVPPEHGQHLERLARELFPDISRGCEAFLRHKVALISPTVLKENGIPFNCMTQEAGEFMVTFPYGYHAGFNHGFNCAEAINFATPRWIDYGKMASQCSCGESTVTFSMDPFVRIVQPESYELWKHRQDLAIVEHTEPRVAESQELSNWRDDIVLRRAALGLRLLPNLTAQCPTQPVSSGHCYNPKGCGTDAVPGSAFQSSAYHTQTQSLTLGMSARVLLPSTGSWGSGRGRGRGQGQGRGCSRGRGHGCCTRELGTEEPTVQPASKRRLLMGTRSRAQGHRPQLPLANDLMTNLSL
Compound,Potency,"activity change, negative = inhibition"
COc1ccc(C)cc1NCc1cccc(OC)c1OC,"inconclusive: 39.8 µM [inhibitor, single point]",
OC(CN1CCN(Cc2ccccc2)CC1)c1ccccc1 (stereo not drawn),"inconclusive: 25.1 µM [inhibitor, single point]",
Cc1oc(-c2nc3ccccc3n2C)cc1C(=O)c1ccccc1,,inactive: -10.4%
CC(C)[C@H](NC(=O)c1ccccc1)C(=O)OCC(=O)NCCc1ccc(F)cc1,,inactive: -1.49%
Cc1cccc(NC(=O)c2cnc3sccn3c2=O)c1,"inconclusive: 35.5 µM [inhibitor, single point]",
CC1CCN(S(=O)(=O)c2ccc(C(=O)NCc3ccco3)cc2)CC1,"inconclusive: 8.91 µM [inhibitor, single point]",
CCN(CC)CC(=O)N1N=C(c2cccs2)CC1c1ccco1 (stereo not drawn),"inconclusive: 39.8 µM [inhibitor, single point]",
COc1ccccc1CC(=O)Nc1ccc(-c2nnc(-c3ccco3)o2)cc1,"inconclusive: 28.2 µM [inhibitor, partial curve]",
CC(=O)c1cnc2c(C(=O)O)cnn2c1C,"inconclusive: 35.5 µM [inhibitor, single point]",
O=[N+]([O-])c1ccccc1/C=C/CN1CCCCC1,,inactive: 0.152%
C=CCc1c(C)nc2c(C(=O)O)cnn2c1C,"inconclusive: 35.5 µM [inhibitor, single point]",
COc1ccc(C2Nc3ccccc3C(=O)N2c2ccccc2)cc1CN1CCOCC1 (stereo not drawn),"inconclusive: 28.2 µM [inhibitor, partial curve]",
CCOC(=O)/C(C#N)=C/c1cn(CCOc2ccc(OC)cc2)c2ccccc12,"inconclusive: 22.4 µM [inhibitor, single point]",
COc1ccc(NC(=O)CSc2nc(O)c(Cc3ccccc3)c(=O)[nH]2)cc1,"inconclusive: 39.8 µM [inhibitor, single point]",
COc1ccc(C(OCCN2CCC[C@@H](C(=O)O)C2)(c2ccc(OC)cc2)c2ccc(OC)cc2)cc1,,inactive: 4.39%
O=c1ccc(C(F)(F)F)cn1Cc1cc(=O)n2cc(Br)ccc2n1,"inconclusive: 31.6 µM [inhibitor, partial curve]",
CSc1ccc(C2Nc3ccccc3-c3cc(C)nn32)cc1 (stereo not drawn),"inconclusive: 25.1 µM [inhibitor, partial curve]",
CCOC(=O)C1(CCOc2ccccc2)CCN(CCCn2cccn2)CC1,,inactive: -5.09%
CC(c1n[nH]c(=S)n1-c1ccc(Cl)cc1)N(C)C (stereo not drawn),"inconclusive: 25.1 µM [inhibitor, single point]",
COc1ccc(-c2noc(CCC(=O)NCCCN3CCN(c4ccc(F)cc4)CC3)n2)cc1,"inconclusive: 35.5 µM [inhibitor, single point]",
O=C(Nc1ccc(NS(=O)(=O)c2ccccc2)cc1)c1cccnc1,,inactive: 5.62%
Nc1ccccc1NC1CCCCC1,active: 14.1 µM,
COc1cc2c(cc1OC)C(=O)CCS2,"inconclusive: 25.1 µM [inhibitor, partial curve]",
O=C(Nc1cc(Cl)ccc1O)c1cc2n(n1)C(C(F)(F)F)CC(c1ccc3c(c1)OCO3)N2 (stereo not drawn),"inconclusive: 25.1 µM [inhibitor, single point]",
CN(Cc1ccccc1)C(=O)CSc1cc(=O)n(C)c2ccccc12,"inconclusive: 31.6 µM [inhibitor, single point]",

Compound,Potency,"activity change, negative = inhibition"
COC(=O)Nc1ccc(S(=O)(=O)N2CCCC(C(=O)NC3CCS(=O)(=O)C3)C2)cc1 (stereo not drawn),,inactive: 5.5%
Cc1cc(=O)n(-c2ccc(C(=O)O)cc2)[nH]1,"inconclusive: 8.91 µM [inhibitor, partial curve]",
CS(=O)(=O)CCCCN=C=S,,inactive: -4.02%
Cc1ccc(-c2[nH]nc3c2C(c2ccoc2)C(C#N)=C(N)O3)cc1C (stereo not drawn),"inconclusive: 20 µM [inhibitor, single point]",
CC(=O)Oc1ccc(C(=O)OCC(=O)c2c(N)n(C)c(=O)n(C)c2=O)cc1OC(C)=O,,inactive: -18.4%
O=C(O)CSc1nnc(-c2cccs2)n1-c1ccc(Cl)cc1,"inconclusive: 39.8 µM [inhibitor, single point]",
Cc1cc(C)c2cc(CN(Cc3ccco3)C(=O)NCc3ccccc3)c(=O)[nH]c2c1,"inconclusive: 35.5 µM [inhibitor, single point]",
CC1CN(C(=S)c2cccc([N+](=O)[O-])c2)CC(C)O1 (stereo not drawn),,inactive: 3.07%
COc1ccc(-n2c(Cc3cccn3C)nnc2SCC(=O)Nc2ccc(Cl)cc2)cc1,,inactive: -3.44%
C=CCNC(=O)/C(=C/c1cccc([N+](=O)[O-])c1)NC(=O)c1ccco1,,inactive: -2.82%
CCOC(=O)c1ccc(COC(=O)CCc2nc(-c3ccccc3)c(-c3ccccc3)o2)cc1,"inconclusive: 31.6 µM [inhibitor, partial curve]",
COCc1ccc(CN2CCc3c([nH]c4ccccc34)C2C(C)(C)C)o1 (stereo not drawn),"inconclusive: 35.5 µM [inhibitor, single point]",
O=C(CC1S/C(=N/N=C/c2ccco2)NC1=O)Nc1cccc(Cl)c1Cl (stereo not drawn),,inactive: -0.976%
O=C(O)c1cc(-c2ccccc2)nc2nc(N3CCCCC3)sc12,"inconclusive: 28.2 µM [inhibitor, partial curve]",
COc1cc2cc(CN(CCCO)S(=O)(=O)c3ccccc3Cl)c(=O)[nH]c2cc1OC,"inconclusive: 28.2 µM [inhibitor, partial curve]",
Cn1ccnc1-c1nc2ccccc2[nH]c1=O,"inconclusive: 25.1 µM [inhibitor, partial curve]",
C=CCn1c(SCc2nc3ccccc3c(=O)[nH]2)nc2ccccc2c1=O,"inconclusive: 35.5 µM [inhibitor, single point]",
CCCCC(=O)NC1(C(F)(F)F)NC(=O)N(C)C1=O (stereo not drawn),,inactive: 5.5%
Cc1ccc(NS(=O)(=O)c2ccc3[nH]c(=O)[nH]c3c2)c(C)c1,,inactive: -7%
O=C(O)COc1ccc2c3c(c(=O)oc2c1)CCCC3,"inconclusive: 31.6 µM [inhibitor, partial curve]",
Cc1ccc(SCc2cn3c(C)cc(C)nc3n2)cc1,"inconclusive: 39.8 µM [inhibitor, single point]",
COc1ccc(-n2c(Cn3nnc4ccccc43)n[nH]c2=S)cc1,,inactive: -24.7%
CC(=O)COC(=O)c1cc(-c2ccc(C)cc2)nc2ccccc12,"inconclusive: 31.6 µM [inhibitor, partial curve]",
Cc1cccc(-n2c(O)c(C=Nc3ccc(O)cc3)c3ccccc3c2=O)n1,,inactive: -23.3%
COc1cc(/C=C2\SC(=S)NC2=O)ccc1OS(=O)(=O)c1ccccc1,,inactive: -11.5%

Compound,Potency,"activity change, negative = inhibition"
COc1ccc(CCNCC(=O)Nc2ccc(C)c(S(=O)(=O)N(C)C)c2)cc1OC,"inconclusive: 25.1 µM [inhibitor, single point]",
COc1ccccc1OCCC(=O)OCC(=O)Nc1ncc(Cl)cc1Cl,"inconclusive: 31.6 µM [inhibitor, single point]",
Cc1ccc2oc(Nc3nc(-c4ccccc4)cc(=O)[nH]3)nc2c1,,inactive: 2.36%
COCCCn1c(O)c(/C=C2\N=C(C#N)C(=Nc3ccc(C)cc3)O2)sc1=S,"inconclusive: 39.8 µM [inhibitor, single point]",
O=C1c2ccccc2CN1CCSC(=S)N1CCSCC1,,inactive: 4.31%
COc1cccc(/C=C/c2ccc3ccccc3n2)c1OC(C)=O,"inconclusive: 28.2 µM [inhibitor, partial curve]",
COc1ccc(-n2c(O)c(/C=N/Nc3nc(C)cc(C)n3)c3ccccc3c2=O)cc1OC,"inconclusive: 31.6 µM [inhibitor, single point]",
COc1ccccc1CNC(=O)C(=O)NCC1CCCO1 (stereo not drawn),,inactive: -9.31%
CC12CCC(C(=O)NCc3ccccn3)(OC1=O)C2(C)C (stereo not drawn),"inconclusive: 28.2 µM [inhibitor, single point]",
COc1ccc(C2=NN(c3ccccc3)C(c3cn(CCC(=O)O)nc3-c3ccccc3)C2)cc1 (stereo not drawn),"inconclusive: 28.2 µM [inhibitor, partial curve]",
CCc1nnc(NC(=O)c2ccc(-c3ccc(Cl)cc3)o2)s1,"inconclusive: 7.94 µM [inhibitor, single point]",
COCCn1c(=O)[nH]c(=O)c2cc(C(=O)c3cc(Cl)ccc3O)cnc21,"inconclusive: 31.6 µM [inhibitor, single point]",
Cc1ccc(S(=O)(=O)NN2C(=O)c3ccccc3NC2c2ccccc2)cc1 (stereo not drawn),"inconclusive: 28.2 µM [inhibitor, partial curve]",
N#Cc1cc(N)c(Nc2ccccc2)cc1C#N,"inconclusive: 31.6 µM [inhibitor, single point]",
O=c1[nH]c(NCCO)nc2c1C1(CCCCC1)Cc1ccccc1-2,"inconclusive: 31.6 µM [inhibitor, partial curve]",
Cc1ccc(-c2csc(NC(=O)c3cccc(N4C(=O)CCC4=O)c3)n2)o1,,inactive: -22.6%
CC(=Nc1ccccc1O)c1sc2ccccc2c1O,"inconclusive: 31.6 µM [inhibitor, single point]",
C/C(CC(=O)NCc1ccccc1)=N\NC(=O)c1cnccn1,,inactive: 24.4%
COC(=O)[C@@]1(Cc2ccc(F)cc2)[C@@H]2C(=CC(=O)[C@H]2CC(=O)C(=O)N(C)C)CN1C(=O)c1ccccc1,,inactive: -0.679%
Cc1cccc2sc(NC(=O)[C@H](C)N3C(=O)C4CC=CCC4C3=O)nc12 (stereo partly drawn),,inactive: -2.02%
Cc1cc(Cl)n2c(nc3ccccc32)c1C#N,"inconclusive: 31.6 µM [inhibitor, partial curve]",
COc1ccccc1N1C(=O)CC(Sc2ncccc2C(=O)O)C1=O (stereo not drawn),,inactive: -0.119%
COc1ccc2c(c1)C(=O)[C@H](OC(=O)NS(=O)(=O)c1ccc(F)cc1)[C@@H](c1ccc(OC)c(Br)c1)O2,,inactive: -10.8%
